In PubChem BioAssay AID2675 (National Center for Advancing Translational Sciences (NCATS), 2010):
In all, about 280,000 compounds went through this assay and about 100 (0.036%) were called active. Inconclusive means that the source gave no clear call. Such entries were picked first, then a sample of the others. Calls follow the shape of the dose curve; as a rule, active = well fitted inhibition curve with a large enough effect in the signal ratio, with a control signal flat (not every such curve was filed as active); inconclusive = small, poorly fitted or top-dose-only effect, or effect the other way, or a change in a side signal; inactive = no such curve, though single readings can be large or run the other way; the % refers to the signal ratio. Where the call is inconclusive, the potency comes from a doubtful curve fit. A note “side channel” means that the fit belongs to a control or component signal, not to the main read-out.

The molecules below were run against Muscleblind-like protein 1 (Homo sapiens) (UniProt Q9NR56) (assay: qHTS Assay for Inhibitors of MBNL1-poly(CUG) RNA binding). Conditions: TR-FRET MBNL1-His/biotin-(CUG)12 binding, 665/545 ratio; activity change, negative = inhibition: at 57.5 µM (top of the series).
Outline: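 MBNL1-His + Biotin-(CUG)12, cpd titration 92 nM–58 uM; Tb anti-His Ab 0.055 ng/ul, SA-XL665 5 nM (final); 60 min RT; ratiometric 665/545 nm, Ex 340 nm; normalized to buffer and full-complex controls.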
% is scaled to controls: 0 for no effect and ±100 for the full control effect; potency is read from the fitted curve at half-maximal effect; tags tell the direction and shape of the fitted curve or compound fluorescence and quenching.

Chain of UniProt Q9NR56 (Q9NR56 whole entry, looked up): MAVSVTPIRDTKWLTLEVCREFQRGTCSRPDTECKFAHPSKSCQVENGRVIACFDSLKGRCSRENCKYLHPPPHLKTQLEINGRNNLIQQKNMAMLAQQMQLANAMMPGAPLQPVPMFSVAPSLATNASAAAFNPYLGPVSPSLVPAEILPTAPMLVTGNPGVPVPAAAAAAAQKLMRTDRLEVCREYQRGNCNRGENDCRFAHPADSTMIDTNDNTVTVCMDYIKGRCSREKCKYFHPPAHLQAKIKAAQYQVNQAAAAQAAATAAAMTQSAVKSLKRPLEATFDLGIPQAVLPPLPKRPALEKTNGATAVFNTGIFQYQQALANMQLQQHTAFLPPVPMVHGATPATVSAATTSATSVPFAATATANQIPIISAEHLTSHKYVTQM

| Compound | Potency | activity change, negative = inhibition |
| --- | --- | --- |
| COc1ccc(C2C(C#N)=C(N)Oc3cccc(O)c32)cc1 (centres undefined) | inconclusive: 28.2 µM [quencher, side channel, single point] | – |
| Cc1ccc(S(=O)(=O)c2nnn3c2nc(NC2CCN(Cc4ccccc4)CC2)c2ccccc23)cc1C | – | inactive: 23.8% |
| Cc1cc(NC(=O)CSc2ccc(-c3cccc([N+](=O)[O-])c3)nn2)no1 | inconclusive: 2 µM [quencher, side channel, full curve] | – |
| CC(=O)/C(=N\Nc1ccc(C)cc1)Sc1nncn1C | inconclusive: 0.316 µM [quencher, side channel, full curve, poor fit] | – |
| Cc1cc(-c2ccc(F)cc2)nc2cc(C(N)=O)nn12 | inconclusive: 20 µM [quencher, side channel, single point] | – |
| Clc1ccc(/C=C\c2nccc3c2[nH]c2ccccc23)cc1 | – | inactive: -2.63% |
| O=C(CSc1ccsc1[N+](=O)[O-])NCc1ccco1 | inconclusive: 15.8 µM [quencher, partial curve] | – |
| O=c1[nH]c(=S)[nH]c2nc(-c3cccs3)cc(C(F)(F)F)c12 | inconclusive: 12.6 µM [quencher, side channel, partial curve] | – |
| O=[N+]([O-])c1cccc(-c2nc(-c3ccccn3)no2)c1 | inconclusive: 3.16 µM [quencher, side channel, full curve] | – |
| CCc1ccccc1NC(=O)Cn1ccn(-c2ccc(OC)cc2)c(=O)c1=O | inconclusive: 12.6 µM [quencher, side channel, partial curve] | – |
| CCOC(=O)N1CCN(C(=O)COc2ccccc2[N+](=O)[O-])CC1 | inconclusive: 35.5 µM [quencher, side channel, single point] | – |
| O=S(=O)(NC1CCCCCCC1)c1ccccc1 | – | inactive: -3.27% |
| O=C(/C=C/c1ccco1)Nc1ccccc1C(=O)O | inconclusive: 31.6 µM [quencher, side channel, single point] | – |
| Cc1ccc(CNC(=O)C(NS(=O)(=O)c2cccc3nsnc23)c2ccccc2)cc1 (centres undefined) | inconclusive: 10 µM [quencher, side channel, partial curve] | – |
| CN1CCN(C(=O)C23CC4CC(CC(C4)C2)C3)CC1 | inconclusive: 1.58 µM [quencher, side channel, full curve] | – |
| CN1C2=CC=CC=CC2=[N+](C)C12C([N+](=O)[O-])=CC(=[N+]([O-])[O-])C=C2[N+](=O)[O-] (centres undefined) | inconclusive: 1.41 µM [quencher, side channel, full curve] | – |
| Cc1ccc(C(=O)N/N=C\c2cccs2)cn1 | inconclusive: 28.2 µM [quencher, side channel, single point] | – |
| COc1ccc(NC(=S)NC(NC(=O)c2cccc(Cl)c2)C(Cl)(Cl)Cl)c([N+](=O)[O-])c1 (centres undefined) | inconclusive: 39.8 µM [quencher, side channel, partial curve] | – |
| Cc1cccc(NC(=O)CCN2C(=O)c3cccc([N+](=O)[O-])c3C2=O)c1 | inconclusive: 10 µM [quencher, side channel, partial curve] | – |
| Cc1cc(C)cc(NC(=O)CSc2nnc(Cc3cccn3C)n2-c2ccc(F)cc2)c1 | inconclusive: 28.2 µM [quencher, side channel, single point] | – |

| Compound | Potency | activity change, negative = inhibition |
| --- | --- | --- |
| COc1cccc(NC(=O)CCc2nc(-c3ccccc3F)no2)c1 | – | inactive: -4.66% |
| COC(=O)COc1ccc2c(=O)c(-c3ccccc3OC)coc2c1 | – | inactive: 6.64% |
| O=C(Nc1ccc(/C=C/c2nc3ccccc3o2)cc1)c1c(F)cccc1F | – | inactive: 8.38% |
| Cc1nn(-c2ccccn2)c(N)c1N=O | inconclusive: 14.1 µM [quencher, side channel, partial curve] | – |
| C[N+]1(CCOc2ccc([N+](=O)[O-])cc2)CCOCC1 | inconclusive: 44.7 µM [quencher, partial curve, poor fit] | – |
| COc1cccc(CN2CCNC(=O)C2CC(=O)NCCCN2CCCC2=O)c1 (centres undefined) | inconclusive: 28.2 µM [quencher, side channel, single point] | – |
| CCC(C)OC(=O)C1=C(C)NC2=C(C(=O)C(C(=O)OC)C(C)C2)C1c1ccc(N(C)C)cc1 (centres undefined) | inconclusive: 25.1 µM [quencher, side channel, single point] | – |
| CCc1cccc(Nc2cc(C)nc3ncnn23)c1 | – | inactive: -9.9% |
| CN(C)c1ccc(-c2nc3ccccc3n2C)cc1 | – | inactive: 7.54% |
| CN(C)c1ccc(N=Nc2ccccc2C(=O)OCC(=O)N(C)C2CCCCC2)cc1 | inconclusive: 17.8 µM [quencher, partial curve] | – |
| COc1ccc2cc3cc(C(=O)N4CCCCC4C)oc3nc2c1 (centres undefined) | inconclusive: 11.2 µM [quencher, side channel, partial curve] | – |
| CC(=O)Oc1ccc2ccccc2c1C(NC(=O)C(C)C)c1cccc([N+](=O)[O-])c1 (centres undefined) | inconclusive: 28.2 µM [quencher, single point] | – |
| O=C(Nc1ccccc1)c1snc2c(=O)[nH]cnc12 | inconclusive: 11.2 µM [quencher, side channel, partial curve] | – |
| COc1ccc(N2C(=O)C(Cl)=C(N(CCO)Cc3ccccc3)C2=O)cc1 | inconclusive: 20 µM [quencher, side channel, partial curve] | – |
| COc1ccc(/C(O)=C2/C(=O)C(=O)N(CCN(C)C)C2c2ccccn2)cc1OC (centres undefined) | inconclusive: 17.8 µM [quencher, side channel, partial curve] | – |
| O=C1/C(=C/c2cccs2)SC(=S)N1CCC(=O)N1CCCCC1CCO (centres undefined) | inconclusive: 8.91 µM [quencher, side channel, partial curve] | – |
| O=C(N=NC(=O)c1ccc2c(O)n(C3CCCCC3)c(O)c2c1)c1cccnc1 | inconclusive: 6.31 µM [quencher, side channel, partial curve] | – |
| CCCCCCC(=O)N(O)C1CC(=O)N(Cc2ccccc2)C1=O (centres undefined) | – | inactive: -3.69% |
| Cc1c(N/C(=N/S(=O)(=O)c2cc([N+](=O)[O-])ccc2Cl)c2ccccc2)c(=O)n(-c2ccccc2)n1C | inconclusive: 20 µM [quencher, side channel, partial curve] | – |
| CCCC(=O)OCCNC(=O)c1cc2ccccc2oc1=O | inconclusive: 28.2 µM [quencher, side channel, partial curve] | – |

| Compound | Potency | activity change, negative = inhibition |
| --- | --- | --- |
| Nc1ccc(Nc2nc(-c3ccncc3)cs2)cc1 | inconclusive: 14.1 µM [quencher, side channel, partial curve] | – |
| CCN(Cc1ccncc1)Cc1c(O)ccc2cc(Br)ccc12 | inconclusive: 20 µM [quencher, side channel, partial curve] | – |
| Cn1c(Sc2ccc([N+](=O)[O-])cc2C(F)(F)F)nnc1-c1ccccc1 | inconclusive: 12.6 µM [quencher, side channel, partial curve] | – |
| NC(CO)C(O)c1ccc([N+](=O)[O-])cc1 (centres undefined) | inconclusive: 28.2 µM [quencher, side channel, single point] | – |
| CC(=Nc1cc(C(=O)c2ccccc2)ccc1N)C1=C(O)CC(C)(C)CC1=O | inconclusive: 35.5 µM [quencher, side channel, single point] | – |
| CCC(=O)Nc1ccc(NC(=S)NC(=O)/C=C/c2ccco2)cc1 | inconclusive: 12.6 µM [quencher, side channel, partial curve] | – |
| O=C(c1cnc(N2CCN(c3ccccn3)CC2)c2ccccc12)N1CCN(c2cccc(Cl)c2)CC1 | – | inactive: -3.27% |
| COc1ccc(N2CCN(S(=O)(=O)c3ccc(Cl)c(C(F)(F)F)c3)CC2)cc1 | inconclusive: 0.708 µM [quencher, side channel, full curve, poor fit] | – |
| Cc1ccc(NS(=O)(=O)c2ccc(-c3ccc(=O)[nH]n3)o2)c(C)c1 | inconclusive: 39.8 µM [fluorescent, side channel, single point] | – |
| O=c1c(C(c2ccc(Cl)cc2)c2c(O)nc3n(c2=O)CCCS3)c(O)nc2n1CCCS2 | – | inactive: -6.72% |
| CC(=O)C1=C(O)C(=O)N(c2ccc(Br)cn2)C1c1ccccc1[N+](=O)[O-] (centres undefined) | inconclusive: 25.1 µM [quencher, side channel, single point] | – |
| C/C(=C\c1ccccc1)CN1CCC(C(=O)N2CCC(C)CC2)CC1 | inconclusive: 79.4 µM [inhibitor, single point] | – |
| COc1ccc(NC(=O)C2CCCN(S(=O)(=O)c3cccc4nonc34)C2)cc1OC (centres undefined) | inconclusive: 12.6 µM [quencher, side channel, partial curve] | – |
| O=C(NC12CC3CC(CC(C3)C1)C2)c1ccc([N+](=O)[O-])cc1 | inconclusive: 4.47 µM [quencher, side channel, full curve, poor fit] | – |
| CCN1C(=O)/C(=C\c2nc3ccccc3c(=O)n2-c2ccccc2)c2ccccc21 | – | inconclusive: -9.37% [phenotype inactive] |
| OCCC1CN(CC(c2ccccc2)c2ccccc2)CCN1C1CCCC1 (centres undefined) | – | inactive: 12.5% |
| CN1/C(=C\C(=O)c2cccnc2)Sc2ccccc21 | inconclusive: 22.4 µM [quencher, side channel, partial curve] | – |
| Nc1c(C(=O)c2ccccc2)sc2nsc(SCCN3CCOCC3)c12 | inconclusive: 10 µM [quencher, side channel, partial curve] | – |
| Cc1ccc(S(=O)(=O)Nc2ccc(O)c3cccnc23)cc1 | inconclusive: 28.2 µM [quencher, side channel, partial curve] | – |
